Test results: the supplement of paper PMC12217912
The list shows a part of the results. Sequences were assembled here from the parent chain. Values near 0.05 are background.

B1: TEV protease; numbered along this chain (parent)
chain: MGESLFKGPRDYNPISSSICHLTNESDGHTTSLYGIGFGPFIITNKHLFRRNNGTLVVQSLHGVFKVKDTTTLQQHLVDGRDMIIIRMPKDFPPFPQKLKFREPQREERICLVTTNFQTKSMSSMVSDTSCTFPSGDGIFWKHWIQTKDGQCGSPLVSTRDGFIVGIHSASNFTNTNNYFTSVPKNFMELLTNQEAQQWVSGWRLNADSVLWGGHKVFMVKPEEPFQPVKEATQL

Variants of: B1
Assay: raw area under fraction-flipped curve 0-4 h after induction (AUC4h, not background-subtracted), DNA-recorder readout of cleavage of the substrate (dimensionless); higher = more cleavage of the substrate by the protease variant
Settings: temperature: 34 °C; time window: 0-4 h after rhamnose induction
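Further: Bxb1 expression induced with 0.2% (w/v) L-rhamnose at OD600 near 0.5, cultures sampled hourly, flipped fraction per protease–substrate barcode pair counted by paired-end Illumina sequencing.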

Row | Variant | area with substrate ENLYFQC | area with substrate ENLYFQL | area with substrate ENLYFQM | area with substrate ENLYFQR | area with substrate ENLYFQS | area with substrate ENLYFQV | area with substrate ENLYFQH | area with substrate ENLYFQI | area with substrate ENLYFQK | area with substrate ENLYFQN | area with substrate ENLYFQW | area with substrate ENLYFQY | area with substrate ENLYFQD | area with substrate ENLYFQG | area with substrate ENLYFQP | area with substrate ENLYFQF | area with substrate ENLYFQT | area with substrate ENLYFQE | area with substrate ENLYFQQ
1 | S124L | 0.12 | 0.054 | 0.0845 | 0.0436 | 0.0904 | 0.0524 | – | – | – | – | – | – | – | – | – | – | – | – | –
2 | S124H | 0.109 | – | – | 0.0573 | 0.103 | – | 0.0839 | 0.0667 | 0.0892 | 0.106 | 0.0618 | 0.0755 | – | – | – | – | – | – | –
3 | R102P | 0.0593 | 0.0496 | 0.0394 | – | 0.0548 | 0.0448 | 0.0624 | 0.04 | – | 0.0437 | – | 0.0458 | 0.0423 | 0.0515 | 0.0429 | – | – | – | –
4 | N172G | 0.0707 | 0.0638 | 0.0444 | – | 0.0697 | – | – | 0.0577 | – | – | – | 0.0558 | 0.0382 | 0.104 | – | 0.0423 | 0.0653 | – | –
5 | R106M | 0.124 | 0.055 | – | 0.0682 | 0.101 | – | 0.0879 | – | 0.0784 | 0.0688 | – | – | – | – | – | 0.102 | – | 0.0093 | –
6 | S123C | 0.162 | 0.0604 | 0.0857 | 0.0606 | 0.0999 | 0.0603 | 0.114 | 0.0427 | 0.0661 | 0.0478 | 0.0686 | 0.0439 | 0.0839 | 0.0876 | 0.0741 | – | 0.0661 | – | –
7 | N177D | 0.0647 | 0.0579 | – | 0.0525 | 0.0898 | – | 0.0724 | 0.0671 | 0.0411 | – | – | – | 0.0805 | 0.0903 | 0.0588 | 0.0712 | 0.0563 | – | 0.0745
8 | T114I | 0.124 | 0.0672 | 0.0831 | 0.0513 | 0.0953 | 0.0089 | 0.0882 | 0.0596 | 0.0494 | 0.0717 | – | – | – | – | 0.0597 | 0.0669 | 0.048 | – | –
9 | S171Q | 0.0761 | – | 0.0627 | – | 0.0721 | – | 0.0633 | – | 0.0598 | 0.0561 | 0.0631 | – | – | 0.0613 | 0.0469 | – | 0.0534 | – | –
10 | T147H | 0.0556 | 0.0578 | 0.0597 | 0.0713 | 0.0607 | – | 0.0714 | 0.057 | 0.0708 | 0.0616 | – | 0.0512 | 0.0356 | – | – | – | 0.052 | 0.0808 | 0.0375
11 | F173Y | 0.131 | 0.0614 | – | 0.0548 | 0.102 | 0.0378 | 0.0951 | 0.0616 | – | 0.0724 | 0.0645 | – | – | – | 0.0668 | – | 0.0637 | – | 0.0647
12 | N178K | 0.134 | – | – | – | 0.106 | 0.0197 | – | 0.0618 | – | 0.0718 | 0.0633 | – | 0.0031 | – | 0.0522 | – | – | – | –
13 | T129G | 0.118 | 0.0648 | 0.0794 | 0.0689 | 0.106 | – | 0.0584 | 0.0531 | – | – | 0.0739 | – | – | – | 0.0793 | – | – | – | –
14 | T129N | 0.094 | 0.0644 | 0.0805 | 0.0608 | 0.107 | 0.0696 | 0.0901 | 0.0631 | 0.0699 | 0.0753 | 0.06 | 0.0728 | – | 0.107 | – | 0.104 | – | – | –
15 | K120S | 0.135 | 0.062 | 0.0977 | 0.0577 | 0.105 | 0.0559 | – | 0.061 | 0.0646 | 0.0806 | 0.065 | 0.0813 | – | 0.0899 | – | – | 0.0691 | – | –
16 | G153K | 0.0464 | 0.0595 | 0.0673 | – | 0.0546 | – | – | – | – | 0.0345 | 0.0411 | – | 0.0492 | – | – | – | – | – | –

Row | Variant | area with substrate ENLYFQC | area with substrate ENLYFQL | area with substrate ENLYFQM | area with substrate ENLYFQR | area with substrate ENLYFQS | area with substrate ENLYFQV | area with substrate ENLYFQH | area with substrate ENLYFQI | area with substrate ENLYFQK | area with substrate ENLYFQN | area with substrate ENLYFQW | area with substrate ENLYFQY | area with substrate ENLYFQD | area with substrate ENLYFQG | area with substrate ENLYFQP | area with substrate ENLYFQF | area with substrate ENLYFQT | area with substrate ENLYFQE | area with substrate ENLYFQQ
17 | M125G | 0.118 | – | 0.0774 | 0.0228 | 0.104 | 0.0726 | 0.104 | – | – | 0.0768 | – | 0.077 | 0.0824 | – | – | – | 0.0674 | – | –
18 | M125A | 0.15 | 0.0568 | 0.112 | 0.0619 | 0.1 | – | – | 0.0697 | 0.0646 | – | 0.052 | 0.0724 | – | 0.124 | – | 0.0853 | 0.0486 | – | –
19 | M125H | 0.141 | 0.0698 | – | 0.0562 | 0.0974 | – | 0.0709 | 0.063 | 0.0662 | 0.0632 | 0.0757 | 0.0845 | – | 0.0873 | 0.0501 | 0.0982 | 0.0542 | – | –
20 | M125C | 0.121 | 0.0593 | 0.127 | – | 0.103 | 0.0558 | – | 0.0646 | – | – | 0.0582 | – | – | – | 0.0605 | – | 0.0656 | – | 0.076
21 | F140T | 0.0515 | – | 0.0493 | – | 0.0611 | 0.0622 | – | – | 0.0636 | 0.0658 | – | – | 0.0331 | – | – | – | – | – | 0.0883
22 | C111G | 0.114 | 0.0339 | – | 0.0568 | 0.0969 | – | – | 0.0491 | – | 0.0509 | – | 0.0848 | 0.0817 | – | – | – | 0.0595 | – | –
23 | F117Q | 0.126 | – | 0.148 | 0.0582 | 0.109 | – | – | – | 0.0572 | 0.0772 | 0.0511 | 0.0559 | 0.0844 | – | 0.0518 | 0.0811 | 0.071 | 0.0521 | –
24 | H143F | 0.105 | 0.0567 | 0.0871 | 0.0634 | 0.107 | 0.0595 | – | 0.0737 | 0.0666 | – | – | 0.0796 | 0.0778 | 0.115 | – | – | 0.0519 | – | –
25 | G138K | 0.0812 | – | – | 0.0433 | 0.0883 | – | 0.0811 | – | 0.0611 | 0.0536 | 0.0686 | 0.0624 | 0.0526 | 0.0689 | – | 0.0078 | 0.0626 | – | –
26 | G138S | 0.124 | – | – | 0.0552 | 0.106 | – | 0.0767 | 0.0543 | – | – | – | 0.0754 | 0.0916 | – | – | – | – | – | –
27 | S154K | 0.089 | 0.043 | 0.0656 | 0.0616 | 0.0892 | – | – | – | 0.0758 | 0.0747 | 0.0669 | 0.0799 | – | 0.0955 | 0.0467 | – | 0.0432 | 0.0311 | –
28 | S154Y | 0.131 | 0.0674 | 0.098 | 0.0569 | 0.0969 | 0.0604 | – | – | – | – | 0.0622 | – | – | – | 0.0644 | – | 0.0777 | – | –
29 | S154T | 0.147 | – | – | 0.0185 | 0.107 | – | 0.0708 | 0.0618 | – | – | – | – | – | – | 0.0807 | 0.0697 | 0.0654 | – | –
30 | D161M | 0.085 | – | 0.0503 | 0.0128 | 0.0589 | – | – | 0.038 | 0.0532 | – | 0.0464 | – | – | 0.118 | – | – | 0.0443 | – | 0.0587
31 | F180K | 0.0533 | 0.0305 | 0.0545 | – | 0.0563 | 0.0602 | – | – | 0.0601 | 0.0516 | 0.0595 | 0.0548 | 0.055 | 0.0521 | – | – | 0.0573 | 0.0582 | –
